From PubChem BioAssay AID588342 (National Center for Advancing Translational Sciences (NCATS), 2011)
Values joined by “and” are separate entries in the source; they are usually repeats but may differ in a detail not shown here. Equal values may be shown once. Screen size: about 360,000 compounds; about 25,000 (6.9%) were called active. The inconclusive results got no clear call from the source; some entries with a clear call stand among them for comparison. Calls come from the whole dose curve; as a rule, active = well fitted inhibition curve with a large enough effect; inconclusive = small, poorly fitted or top-dose-only effect; inactive = flat fitted curve, though single readings scatter. A potency beside an inconclusive call is a rough fit, not a confirmed value.
Note: nearly all actives have a fitted effect of over 55% in size.
Potency is the fitted concentration of half-maximal effect; tags give direction and shape of the fitted curve.
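Throughout, for activity change, negative = inhibition: plate controls were vehicle for no effect and reference inhibitor for full effect.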

Each compound was assayed against Luciferin 4-monooxygenase (Photinus pyralis) (UniProt P08659) (assay: qHTS profiling assay for firefly luciferase inhibitor/activator using purifed enzyme and Km concentrations of substrates (counterscreen for miR-21 project)). Conditions: purified FLuc, luminescence inhibition; series mostly up to 57.5 µM; activity change, negative = inhibition: at the top concentration.
UniProt P08659, sequence (P08659 whole entry, looked up): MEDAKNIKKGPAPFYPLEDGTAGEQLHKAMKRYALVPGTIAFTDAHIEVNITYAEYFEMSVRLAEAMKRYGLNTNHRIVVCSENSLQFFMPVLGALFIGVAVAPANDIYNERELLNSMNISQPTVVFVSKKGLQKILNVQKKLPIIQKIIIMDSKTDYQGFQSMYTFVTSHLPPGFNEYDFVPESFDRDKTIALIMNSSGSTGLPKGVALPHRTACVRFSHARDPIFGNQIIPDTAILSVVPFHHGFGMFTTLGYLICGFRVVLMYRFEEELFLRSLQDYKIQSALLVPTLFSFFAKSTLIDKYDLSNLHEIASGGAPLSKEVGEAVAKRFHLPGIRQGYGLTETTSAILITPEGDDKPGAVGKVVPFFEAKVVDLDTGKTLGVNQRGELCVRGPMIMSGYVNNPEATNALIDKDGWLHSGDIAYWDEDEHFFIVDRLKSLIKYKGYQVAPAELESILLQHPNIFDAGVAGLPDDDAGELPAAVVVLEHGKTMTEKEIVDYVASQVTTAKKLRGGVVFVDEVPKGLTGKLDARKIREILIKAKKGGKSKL
In short: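 Biochemical qHTS of compounds, final roughly 60 µM downward over six points, against 10 nM purified firefly luciferase using Km concentrations of substrates (10 uM D-luciferin, 10 uM ATP) in Tris acetate pH 7.5 buffer; luminescence output.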
With `O=Cc1cc(-c2ccccc2)[nH]c1-c1ccccc1` the Potency was inconclusive: 1.9 µM [inhibitor, full curve].
In the case of `CC1CCN(c2ccc(C(=O)Nc3nnc(C4CC4)s3)cc2[N+](=O)[O-])CC1`, the Potency is reported as inconclusive: 19 µM [inhibitor, partial curve].
For `Cc1cc(C)c(C)c(S(=O)(=O)Nc2ccccc2C(=O)O)c1C`, the Potency was inconclusive: 21.3 µM [inhibitor, partial curve, poor fit].
`O=C1NCC2=C1C(c1ccc(Br)cc1)Nc1ccccc1N2` (centres undefined) was tested, and the Potency was inconclusive: 37.9 µM [inhibitor, partial curve, poor fit].
For `CS(=O)(=O)c1ccc(Cl)c(NC(=O)CN2CCCC2c2ccc3c(c2)OCCCO3)c1` (centres undefined), the “activity change, negative = inhibition” value was inactive: 3.53%.
In the case of `CCCOc1ccc(C(=O)Nc2ccc(NC(=O)c3ccccc3)c(Br)c2)cc1`, the “activity change, negative = inhibition” value is reported as inactive: 0.766%.
`Cc1ccc(C)c(NC(=O)c2ccc3ccccc3n2)c1` was tested, and the Potency was active: 0.849 µM.
In the case of `Cc1nnc(NC(=O)c2nc(SCc3ccccc3F)ncc2Cl)s1`, the Potency is reported as inconclusive: 23.9 µM [inhibitor, partial curve].
`CC(=O)c1cccc(NC(=O)CSc2n[nH]c(-c3ccncc3)n2)c1` was tested, and the Potency was inconclusive: 37.9 µM [inhibitor, partial curve, poor fit].
With `O=C(COC(=O)c1ccc(Cl)nc1)Nc1ccc(S(=O)(=O)N2CCCC2)cc1` the “activity change, negative = inhibition” value was inactive: 2.76%.
For `COc1ccccc1C(=O)NC1CCCc2ccccc21` (centres undefined), the “activity change, negative = inhibition” value was inactive: 0.157%.
`COc1ccc(OC)c(-n2c(-c3ccccc3)n[nH]c2=S)c1` was tested, and the Potency was inconclusive: 33.8 µM [inhibitor, single point].
With `CC1CCN(S(=O)(=O)c2ccc(C(=O)Nc3nnc(-c4ccncc4)o3)cc2)CC1` the Potency was inconclusive: 30.1 µM [inhibitor, partial curve, poor fit].
With `Cc1cnc(NC(=O)C2(c3ccccc3)CC2)s1` the “activity change, negative = inhibition” value was inactive: -19.1%.
With `CCOC(=O)C1CCCN(CCC(=O)Nc2cccc(F)c2)C1` (centres undefined) the “activity change, negative = inhibition” value was inactive: 1.23%.
`Cc1ccc(CN2COc3ccc4c(-c5ccccc5)cc(=O)oc4c3C2)cc1` was tested, and the “activity change, negative = inhibition” value was inactive: -0.771%.
For `COc1ccc(F)cc1S(=O)(=O)NCC(c1ccco1)N1CCc2ccccc2C1` (centres undefined), the “activity change, negative = inhibition” value was inactive: -1.59%.
`COc1ccccc1C(CC(=O)Nc1ccc(C)c(C)c1)c1ccc(OC(C)C)cc1` (centres undefined) was tested, and the “activity change, negative = inhibition” value was inactive: 0.269%.
For `CCN(CC(=O)Nc1ccccc1OC)C(=O)c1ccc2[nH]c3c(c2c1)CC(C)CC3` (centres undefined), the Potency was inconclusive: 26.9 µM [inhibitor, partial curve, poor fit].
In the case of `COc1ccc(/C=N/NC(=O)C2COc3ccccc3O2)cc1OC` (centres undefined), the Potency is reported as active: 19 µM.
For `CC(C)c1nn2c(=O)cc(COC(=O)c3ccccc3NC(=O)COc3ccccc3)nc2s1`, the Potency was active: 21.3 µM.
`CCOC(=O)c1c(C)[nH]c(C(=O)CSc2ccc(Cl)cc2)c1C` was tested, and the Potency was active: 6.01 µM.
`CCCCNC(=O)c1onc(CSc2ccccc2F)c1C(=O)O` was tested, and the Potency was inconclusive: 37.9 µM [inhibitor, partial curve, poor fit].
`Cc1cc(C)c(S(=O)(=O)N2CCOC2CNC(=O)C(=O)NCCN(C)C)c(C)c1` (centres undefined) was tested, and the “activity change, negative = inhibition” value was inactive: 1.4%.
With `O=C(CSc1nc(-c2cccc(F)c2)[nH]c1-c1ccccc1)Nc1ccc2c(c1)OCCO2` the Potency was inconclusive: 10.7 µM [inhibitor, partial curve].
For `CCNC(=O)OCC12CC3CC(CC(C3)C1)C2`, the Potency was inconclusive: 37.9 µM [inhibitor, partial curve, poor fit].
In the case of `CCC(=O)N1CCc2cc(OC)c(OC)cc2C1COc1ccccc1OC` (centres undefined), the Potency is reported as “inactive”.
With `Cc1cccc(NC(=S)NNC(=O)c2ccccc2Br)c1` the Potency was inconclusive: 12 µM [inhibitor, partial curve].
`CCc1ccc(NC(=O)CCCc2nnc3n(CC(C)C)c(=O)c4sccc4n23)cc1` was tested, and the “activity change, negative = inhibition” value was inactive: -0.663%.
`CC(C)CNC(=O)c1cccc(NC(=O)CSc2ccccc2)c1` was tested, and the Potency was inconclusive: 37.9 µM [inhibitor, partial curve, poor fit].
With `CN(C)/C=C1\SC(=S)N(c2ccc(Br)cc2)C1=O` the Potency was inconclusive: 21.3 µM [inhibitor, single point].
With `O=C(Nc1cccc(O)c1)c1noc2c1CCc1ccccc1-2` the Potency was active: 338 nM and active: 478 nM.
`COc1cccc(C(=O)c2cn(CC(=O)NCc3ccccc3Cl)c3nc(C)ccc3c2=O)c1` was tested, and the “activity change, negative = inhibition” value was inactive: -5.26%.
In the case of `Cc1ccn(C(=O)c2cc3c(C)nn(-c4ccccc4)c3s2)n1`, the Potency is reported as inconclusive: 6.75 µM [inhibitor, partial curve, poor fit].
`Cc1[nH]nc(N=CC2=C(O)CC(C)(C)CC2=O)c1-c1ccc(Cl)cc1` was tested, and the Potency was active: 16.9 µM.
`O=C(OCc1ccccc1F)c1ccc2c(c1)OCCO2` was tested, and the Potency was active: 6.01 µM.
With `O=C(COC(=O)c1cccs1)c1ccc2c(c1)OCCO2` the Potency was active: 0.0757 µM.
`O=C(c1ccco1)N1CCn2c1nc1ccccc12` was tested, and the Potency was inconclusive: 23.9 µM [inhibitor, partial curve].
For `CCc1ccc(-n2c(=O)c3sc4ccccc4c3n(CC(=O)N3CCCC3)c2=O)cc1`, the “activity change, negative = inhibition” value was inactive: 1.58%.
For `S=c1[nH]nc(-c2ccccn2)n1/N=C/c1ccc(-c2ccccc2Cl)o1`, the Potency was inconclusive: 26.9 µM [inhibitor, single point].
For `COc1cc(/C=N\NC(=O)C2COc3ccccc3O2)cc(OC)c1O` (centres undefined), the “activity change, negative = inhibition” value was inactive: -4.34%.
`CCCCCCC(=O)c1c(C)[nH]c(C(=O)OCC)c1C` was tested, and the Potency was inconclusive: 15.1 µM [inhibitor, partial curve].
For `CCc1cccc(NC(=O)CN2Cc3ccccc3C2=O)c1`, the “activity change, negative = inhibition” value was inactive: -3.32%.
For `O=C(COc1ccc2ccccc2c1)Nc1nccs1`, the Potency was active: 0.601 µM.
`CCC(C(=O)OCC(=O)NC(=O)c1ccccc1OC)c1ccccc1` (centres undefined) was tested, and the Potency was inconclusive: 37.9 µM [inhibitor, single point].
For `CCOC(=O)c1ccc(CSc2nnc(-c3ccncc3)n2N)cc1`, the Potency was inconclusive: 37.9 µM [inhibitor, partial curve, poor fit].
With `CCc1ccc(NC(=O)c2cnn(-c3ccccc3)c2C)cc1` the Potency was active: 0.675 µM.
In the case of `Cc1ccc(NC(=O)c2ccc(N3CCOCC3)c([N+](=O)[O-])c2)cc1S(=O)(=O)N1CCOCC1`, the “activity change, negative = inhibition” value is reported as inactive: 2%.
With `COc1ccc(OC)c(-c2c3cc(O)c(=O)cc-3oc3cc(O)c(O)cc23)c1` the Potency was inconclusive: 33.8 µM [inhibitor, single point].
